Assay results reported in the supplement of paper PMC12423691.
Some of the results follow. Binding of human transcription factors and regulators to the viral nucleoprotein by AlphaScreen, crude cell-free proteins, amounts not normalised, one pass. Fold of the Venus control; higher = more signal. No active / inactive call. Single-pass screen; sequences are the whole Swiss-Prot entries looked up by name.

B1: BACH1, O14867 (protein)
chain: MSLSENSVFAYESSVHSTNVLLSLNDQRKKDVLCDVTIFVEGQRFRAHRSVLAACSSYFHSRIVGQADGELNITLPEEVTVKGFEPLIQFAYTAKLILSKENVDEVCKCVEFLSVHNIEESCFQFLKFKFLDSTADQQECPRKKCFSSHCQKTDLKLSLLDQRDLETDEVEEFLENKNVQTPQCKLRRYQGNAKASPPLQDSASQTYESMCLEKDAALALPSLCPKYRKFQKAFGTDRVRTGESSVKDIHASVQPNERSENECLGGVPECRDLQVMLKCDESKLAMEPEETKKDPASQCPTEKSEVTPFPHNSSIDPHGLYSLSLLHTYDQYGDLNFAGMQNTTVLTEKPLSGTDVQEKTFGESQDLPLKSDLGTREDSSVASSDRSSVEREVAEHLAKGFWSDICSTDTPCQMQLSPAVAKDGSEQISQKRSECPWLGIRISESPEPGQRTFTTLSSVNCPFISTLSTEGCSSNLEIGNDDYVSEPQQEPCPYACVISLGDDSETDTEGDSESCSAREQECEVKLPFNAQRIISLSRNDFQSLLKMHKLTPEQLDCIHDIRRRSKNRIAAQRCRKRKLDCIQNLESEIEKLQSEKESLLKERDHILSTLGETKQNLTGLCQKVCKEAALSQEQIQILAKYSAADCPLSFLISEKDKSTPDGELALPSIFSLSDRPPAVLPPCARGNSEPGYARGQESQQMSTATSEQAGPAEQCRQSGGISDFCQQMTDKCTTDE
B2: BARX2, Q9UMQ3 (protein)
chain: MHCHAELRLSSPGQLKAARRRYKTFMIDEILSKETCDYFEKLSLYSVCPSLVVRPKPLHSCTGSPSLRAYPLLSVITRQPTVISHLVPATPGIAQALSCHQVTEAVSAEAPGGEALASSESETEQPTPRQKKPRRSRTIFTELQLMGLEKKFQKQKYLSTPDRLDLAQSLGLTQLQVKTWYQNRRMKWKKMVLKGGQEAPTKPKGRPKKNSIPTSEEIEAEEKMNSQAQGQEQLEPSQGQEELCEAQEPKARDVPLEMAEPPDPPQELPIPSSEPPPLS
B3: ZFP36L2, P47974 (protein)
chain: MSTTLLSAFYDVDFLCKTEKSLANLNLNNMLDKKAVGTPVAAAPSSGFAPGFLRRHSASNLHALAHPAPSPGSCSPKFPGAANGSSCGSAAAGGPTSYGTLKEPSGGGGTALLNKENKFRDRSFSENGDRSQHLLHLQQQQKGGGGSQINSTRYKTELCRPFEESGTCKYGEKCQFAHGFHELRSLTRHPKYKTELCRTFHTIGFCPYGPRCHFIHNADERRPAPSGGASGDLRAFGTRDALHLGFPREPRPKLHHSLSFSGFPSGHHQPPGGLESPLLLDSPTSRTPPPPSCSSASSCSSSASSCSSASAASTPSGAPTCCASAAAAAAAALLYGTGGAEDLLAPGAPCAACSSASCANNAFAFGPELSSLITPLAIQTHNFAAVAAAAYYRSQQQQQQQGLAPPAQPPAPPSATLPAGAAAPPSPPFSFQLPRRLSDSPVFDAPPSPPDSLSDRDSYLSGSLSSGSLSGSESPSLDPGRRLPIFSRLSISDD
B4: TFAM, Q00059 (protein)
chain: MAFLRSMWGVLSALGRSGAELCTGCGSRLRSPFSFVYLPRWFSSVLASCPKKPVSSYLRFSKEQLPIFKAQNPDAKTTELIRRIAQRWRELPDSKKKIYQDAYRAEWQVYKEEISRFKEQLTPSQIMSLEKEIMDKHLKRKAMTKKKELTLLGKPKRPRSAYNVYVAERFQEAKGDSPQEKLKTVKENWKNLSDSEKELYIQHAKEDETRYHNEMKSWEEQMIEVGRKDLLRRTIKKQRKYGAEEC
B5: STAG1, Q8WVM7 (protein)
chain: MITSELPVLQDSTNETTAHSDAGSELEETEVKGKRKRGRPGRPPSTNKKPRKSPGEKSRIEAGIRGAGRGRANGHPQQNGEGEPVTLFEVVKLGKSAMQSVVDDWIESYKQDRDIALLDLINFFIQCSGCRGTVRIEMFRNMQNAEIIRKMTEEFDEDSGDYPLTMPGPQWKKFRSNFCEFIGVLIRQCQYSIIYDEYMMDTVISLLTGLSDSQVRAFRHTSTLAAMKLMTALVNVALNLSIHQDNTQRQYEAERNKMIGKRANERLELLLQKRKELQENQDEIENMMNSIFKGIFVHRYRDAIAEIRAICIEEIGVWMKMYSDAFLNDSYLKYVGWTLHDRQGEVRLKCLKALQSLYTNRELFPKLELFTNRFKDRIVSMTLDKEYDVAVEAIRLVTLILHGSEEALSNEDCENVYHLVYSAHRPVAVAAGEFLHKKLFSRHDPQAEEALAKRRGRNSPNGNLIRMLVLFFLESELHEHAAYLVDSLWESSQELLKDWECMTELLLEEPVQGEEAMSDRQESALIELMVCTIRQAAEAHPPVGRGTGKRVLTAKERKTQIDDRNKLTEHFIITLPMLLSKYSADAEKVANLLQIPQYFDLEIYSTGRMEKHLDALLKQIKFVVEKHVESDVLEACSKTYSILCSEEYTIQNRVDIARSQLIDEFVDRFNHSVEDLLQEGEEADDDDIYNVLSTLKRLTSFHNAHDLTKWDLFGNCYRLLKTGIEHGAMPEQIVVQALQCSHYSILWQLVKITDGSPSKEDLLVLRKTVKSFLAVCQQCLSNVNTPVKEQAFMLLCDLLMIFSHQLMTGGREGLQPLVFNPDTGLQSELLSFVMDHVFIDQDEENQSMEGDEEDEANKIEALHKRRNLLAAFSKLIIYDIVDMHAAADIFKHYMKYYNDYGDIIKETLSKTRQIDKIQCAKTLILSLQQLFNELVQEQGPNLDRTSAHVSGIKELARRFALTFGLDQIKTREAVATLHKDGIEFAFKYQNQKGQEYPPPNLAFLEVLSEFSSKLLRQDKKTVHSYLEKFLTEQMMERREDVWLPLISYRNSLVTGGEDDRMSVNSGSSSSKTSSVRNKKGRPPLHKKRVEDESLDNTWLNRTDTMIQTPGPLPAPQLTSTVLRENSRPMGDQIQEPESEHGSEPDFLHNPQMQISWLGQPKLEDLNRKDRTGMNYMKVRTGVRHAVRGLMEEDAEPIFEDVMMSSRSQLEDMNEEFEDTMVIDLPPSRNRRERAELRPDFFDSAAIIEDDSGFGMPMF
B6: JUNB, P17275 (protein)
chain: MCTKMEQPFYHDDSYTATGYGRAPGGLSLHDYKLLKPSLAVNLADPYRSLKAPGARGPGPEGGGGGSYFSGQGSDTGASLKLASSELERLIVPNSNGVITTTPTPPGQYFYPRGGGSGGGAGGAGGGVTEEQEGFADGFVKALDDLHKMNHVTPPNVSLGATGGPPAGPGGVYAGPEPPPVYTNLSSYSPASASSGGAGAAVGTGSSYPTTTISYLPHAPPFAGGHPAQLGLGRGASTFKEEPQTVPEARSRDATPPVSPINMEDQERIKVERKRLRNRLAATKCRKRKLERIARLEDKVKTLKAENAGLSSTAGLLREQVAQLKQKVMTHVSNGCQLLLGVKGHAF

These binders were tested against nucleoprotein N of Crimean-Congo hemorrhagic fever virus (assay: AlphaScreen luminescence signal relative to Venus negative control (fold); higher = stronger binding to CCHFV N).
Procedure: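 AlphaScreen binding of cell-free made, FLAG-GST-tagged human transcription factors and regulators (crude translation products) to biotinylated N protein; signal as fold of the FLAG-GST-Venus control. One pass.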

**Q.** How did the AlphaScreen luminescence signal turn out when B1 was run?
**A.** The AlphaScreen luminescence signal was 1.12.

**Q.** How did the AlphaScreen luminescence signal turn out when B2 was run?
**A.** Its AlphaScreen luminescence signal is 2.47.

**Q.** How did the AlphaScreen luminescence signal turn out when B3 was run?
**A.** The AlphaScreen luminescence signal was 50.2.

**Q.** Which AlphaScreen luminescence signal does the source give for B4 here?
**A.** Its AlphaScreen luminescence signal is 2.88.

**Q.** How did the AlphaScreen luminescence signal turn out when B5 was run?
**A.** The AlphaScreen luminescence signal was 4.33.

**Q.** Which AlphaScreen luminescence signal does the source give for B6 here?
**A.** Its AlphaScreen luminescence signal is 4.14.
